Common to all, as to assay: Primary Screen for Target Class Profiling of Small Molecule Inhibitors of Methyltransferases
Assay [1] has as its target Glycine N-methyltransferase (Homo sapiens) (UniProt Q14749). The following applies: purified enzyme, MTase-Glo SAH luminescence; measured here: GNMT inhibition; at 40 µM; stronger effect = lower value. The procedure, abridged: (§1)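 Each enzyme was assayed with SAM and its substrate. SAH formation detected by MTase-Glo luminescence; single-point 40 uM screen[…].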

In assay [2] the target is Guanidinoacetate N-methyltransferase (Homo sapiens) (UniProt Q14353). The following applies: purified enzyme, MTase-Glo SAH luminescence; measured here: GAMT inhibition; at 40 µM; stronger effect = lower value. The procedure, abridged:
as §1

Assay [3] concerns the target Histamine N-methyltransferase (Homo sapiens) (UniProt P50135). The following applies: purified enzyme, MTase-Glo SAH luminescence; measured here: HNMT inhibition; at 40 µM; stronger effect = lower value. The procedure, abridged: as §1
In assay [4] the target is Nicotinamide N-methyltransferase (Homo sapiens) (UniProt P40261). The following applies: purified enzyme, MTase-Glo SAH luminescence; measured here: NNMT inhibition; at 40 µM; stronger effect = lower value. The gist of the method: as §1
For assay [5], the target named is Phenylethanolamine N-methyltransferase (Homo sapiens) (UniProt P11086). The following applies: purified enzyme, MTase-Glo SAH luminescence; measured here: PNMT inhibition; at 40 µM; stronger effect = lower value. The gist of the method: as §1

“And” between values parts separate entries of the source, which are not always exact repeats. Equal values may be shown once. Some of the results follow. These are further read-outs of the screen, such as a control signal, another cell line or another target. No call is given for them.

The source of these data is PubChem BioAssay AID1745853 (National Center for Advancing Translational Sciences (NCATS), 2022).
% is set by controls: 0 for no effect and ±100 for the full control effect.

Consider `O=C(CCc1nnc2n(Cc3ccccc3Cl)c(=O)c3ccccc3n12)Nc1ccc(F)c(F)c1`, for which the activity change, negative = inhibition in assay [1] was -4.23%; in assay [2], 0.09%; in assay [3], 6.41%; in assay [4], -12.8%; in assay [5] it was -2.28%.
As for `CC1(C)CC=C(c2cnc3ccccc3c2)c2cc(C(=O)Nc3ccc(C(=O)O)cc3)ccc21`, the activity change, negative = inhibition in assay [1] was -23.4%; in assay [2], 6.52%; in assay [3], 5.29%; in assay [4], 20.5%; in assay [5], 0.448%.
For the molecule `COCCc1noc(-c2ccc(N(C)Cc3ncc(C)[nH]3)nc2)n1`, the activity change, negative = inhibition in assay [1] is -7.46%; in assay [2] it was -3.79%; in assay [3] it was -8.78%; in assay [4], -6.9%; in assay [5], -1.22%.
Turning to `CC1CCc2c(cc(Br)c(F)c2Br)N1C=O` (stereo not drawn), the activity change, negative = inhibition in assay [2] was -3.67%; in assay [4] it was -8.37%; in assay [5], 2.82%.
`CC1=C(CCC(C)O[C@@H]2O[C@H](CO)[C@@H](O)[C@H](O)[C@H]2O)C(C)(C)CC(O)C1` (stereo partly drawn): the activity change, negative = inhibition is -2.2% in assay [1]; 2.17% in assay [2]; 5.31% in assay [3]; -10.8% in assay [4]; -3.91% in assay [5].
For the molecule `COC(=O)[C@@H](N)Cc1ccc(O)c(O)c1`, the activity change, negative = inhibition in assay [1] was -8.64%; in assay [2], 13.3%; in assay [3], 4.16%; in assay [4] it was -2.01%; in assay [5] it was 7.44%.
On the same counts, the results for `CN(C)CCOc1cc(NS(=O)(=O)c2c(Cl)cc(C(F)(F)F)cc2Cl)ccc1Cl` are -5.58%, -11.5%, 0.777%, -22.4% and -4.41%.
On the same counts, the results for `CCn1cnnc1-c1nn(C)c2c1CN(C(=O)CCCc1nc3ccccc3s1)CC2` are -33.2%, -11%, -12%, -14.7% and -9.5%.
Take `COc1ccc2c(c1)c(CC(=O)O)c(C)n2Cc1ccc(Cl)cc1`: the activity change, negative = inhibition in assay [1] is -32.7%; in assay [2], 2.23%; in assay [3], -5.38%; in assay [4], -9.8%; in assay [5] it was 2.94%.
On the same counts, the results for `C=C1C(=O)OC[C@H]2C(C(=O)O)=CC3CC(C)(C)C[C@@]132` (stereo partly drawn) are 1.75%, 4.4%, 13.5%, -7.83% and 4.21%.
On the same counts, the results for `CCNC(=O)CCC/C=C\C[C@@H]1[C@@H](/C=C/C(O)CCc2ccccc2)[C@@H](O)C[C@@H]1O` (stereo partly drawn) are -5.08%, -3.54%, 3.82%, -17.6% and -0.533%.
On the same counts, the results for `O=C(c1cc(F)ccc1F)N1CCC(Oc2cccnc2)C1` (stereo not drawn) are 0.135%, -0.543%, 0.016%, -3.44% and -1.35%.
As for `CCCn1c(=O)c2ccc(C(=O)NC3CCCC3)cc2n2c(=O)n(Cc3cccc(OC)c3)nc12`, the activity change, negative = inhibition in assay [1] was -2.99%; in assay [2], 2.14%; in assay [3] it was 2.58%; in assay [4], -4.36%; in assay [5] it was -0.231%.
On the same counts, the results for `COc1ccc(N2C(=O)[C@@H]3Cc4nc[nH]c4CN3C2=O)cc1` are -1.74%, -7.64%, -0.023%, -13.7% and -5.23%.
On the same counts, the results for `CC(=O)Nc1ccc(-c2c(C(C)C)nn(-c3cccc(F)c3)c2OC(C)=O)cc1` are -0.962%, 4.37%, 2.33%, 1.49% and 16.4%.
Consider `CCCn1c(=O)c2cc(Cl)ccc2n2c(=O)n(CC(=O)NCc3ccccc3Cl)nc12`, for which the activity change, negative = inhibition in assay [1] is -4.2%; in assay [2], -7.3%; in assay [3], 3.69%; in assay [4], -5.68%; in assay [5], -5.78%.
As to `CC1(C)[C@@H](O)CC[C@]2(C)[C@H]3C(=O)C=C4[C@@H]5C[C@@](C)(C(=O)O)CC[C@]5(C)CC[C@@]4(C)[C@]3(C)CC[C@@H]12`, the activity change, negative = inhibition in assay [1] is -10.1%; in assay [2], 7.57% and -0.599%; in assay [3], 4.09%; in assay [4], -23% and -16.7%; in assay [5], -3.26% and -9.38%.
Consider `Cc1cccc(-c2nc3cc(C(=O)NCc4ccc(F)cc4)ccc3o2)n1`, for which the activity change, negative = inhibition was -3.81% in assay [1]; -6.39% in assay [2]; -2.2% in assay [3]; -5.68% in assay [4]; -4.97% in assay [5].
On the same counts, the results for `CC(C)CCNC(=O)C1(C)Cn2c(cc3ccccc32)C(=O)N1Cc1ccc(N(C)C)cc1` (stereo not drawn) are -0.258%, 0%, -2.82%, -6.68% and -3.19%.
On the same counts, the results for `COC(=O)c1ccc([C@@H]2Nc3c(OC)cccc3[C@@H]3C=CC[C@@H]32)cc1` are -5.69%, -2.74%, -6.33%, -16.7% and -11.2%.
Consider `CN1CCN(Cc2ccc(NC(=O)Nc3ccc(Oc4cc(NC(=O)C5CC5)ncn4)cc3)cc2C(F)(F)F)CC1`, for which the activity change, negative = inhibition in assay [1] was -6.49%; in assay [2], 18.2%; in assay [3] it was -92.2%; in assay [4] it was -16.2%; in assay [5], -8.44%.
On the same counts, the results for `Cn1c(=O)c2ccc(C(=O)NC3CCCC3)cc2n2c(=O)n(CC(=O)NCc3ccccc3Cl)nc12` are 3.47%, 1.47%, 1.04%, 0.591% and -2.69%.
Regarding `COc1ccc(-c2ccc3ccccc3n2)c(OC)c1OC`, the activity change, negative = inhibition in assay [1] is -7.65%; in assay [2] it was -1.86%; in assay [3], -3.52%; in assay [4], -3.08%; in assay [5], -0.713%.
`Cn1c(=O)n(C)c2cc(S(=O)(=O)N3CCN(c4ccccn4)CC3)c(Cl)cc21`: the activity change, negative = inhibition was 10.5% in assay [1]; 0.952% in assay [2]; 8.89% in assay [3]; 2.98% in assay [4]; 7.4% in assay [5].
On the same counts, the results for `COc1cccc(CNC(=O)c2cc3n(n2)CC(C)(C(=O)NC2CCCCC2)N(C)C3=O)c1` (stereo not drawn) are 4.79%, 0%, 4.39%, 6.7% and 1.2%.
The corresponding values for `Cn1cncc1CN1CCC2(CCN(C3CCOCC3)CC2)C(CO)C1` (stereo not drawn) are -1.66%, 0.924%, -0.496%, -1.55% and 12.4%.
On the same counts, the results for `Cc1nc(C)c(C(=O)N2CCCC(c3nn(C)c(=O)n3C(C)C)C2)s1` (stereo not drawn) are -3.74%, -12%, -5.26%, -11% and -10.4%.
As to `O=C1CCCCCN1C1CCN(Cc2ccsc2)CC1`, the activity change, negative = inhibition in assay [1] is -3.96%; in assay [2] it was -3.48%; in assay [3], -2.29%; in assay [4] it was -6.94%; in assay [5] it was -6.11%.
On the same counts, the results for `CCCn1c(=O)c2ccc(C(=O)NC(C)C)cc2n2c(SCC(N)=O)nnc12` are 2.49%, 4.37%, 5.22%, -3.03% and 2.19%.
The corresponding values for `CCCN1C(=O)c2c(C(=O)NCc3cccc(OC)c3)ncn2CC1(C)C(=O)NCCC(C)C` (stereo not drawn) are 1.34%, 1.48%, 2.8%, 4.5% and 3.93%.
In the case of `CCc1cc2c(cc3n2CC(C)(C(=O)NC2CCCCC2)N(CCc2ccccc2)C3=O)s1` (stereo not drawn), the activity change, negative = inhibition in assay [1] was -4.29%; in assay [2], 2.45%; in assay [3] it was 3.24%; in assay [4] it was 4.56%; in assay [5], -3.13%.
On the same counts, the results for `CC(C)Cn1c(=O)c2ccc(C(=O)NC(C)C)cc2n2c(=O)n(Cc3ccccc3Cl)nc12` are 3%, 4.8%, 6.18%, -2.68% and 3.69%.
The corresponding values for `CCCS(=O)(=O)N1Cc2c(ncn2Cc2ccc(Cl)cc2)C[C@H]1C(=O)OC` are -2.07%, -1.29%, 1.62%, -2.61% and 1.27%.
On the same counts, the results for `COc1ccc(OC)c(CCNC(=O)CCc2nnc3n(CCC(C)C)c(=O)c4ccccc4n23)c1` are -14.7%, 1.98%, -0.776%, -21.5% and 0.431%.
In the case of `CCCn1c(=O)c2cc(F)ccc2n2c(SCC(=O)Nc3cccc(C)c3)nnc12`, the activity change, negative = inhibition in assay [1] was found to be 1.84%; in assay [2] it was 2.68%; in assay [3], 13.1%; in assay [4], 3.83%; in assay [5] it was 5.48%.
On the same counts, the results for `O=C(CCCc1nnc2n3nc(-c4ccccc4)nc3c3ccccc3n12)N1CCN(C2CCCCC2)CC1` are -7.36%, 1.81%, -27.4%, 0.165% and -3.53%.
On the same counts, the results for `Cc1ccc(CCC(=O)N2C[C@@H](CN3CCOCC3)[C@@H](CO)C2)cc1` are -0.246%, -0.767%, 0.198%, -0.159% and -3.31%.
The corresponding values for `O=C1CC2CCN([S+](=O)([O-])c3cccs3)CC2CCN1` (stereo not drawn) are -7.7%, -0.736%, 1.26%, -5.87% and -3.42%.
For `O=C(CCCN1CCC(O)(c2ccc(Cl)cc2)CC1)c1ccc(F)cc1`, the activity change, negative = inhibition in assay [1] was 4.15%; in assay [2], 11.8%; in assay [3] it was 7.4%; in assay [4] it was -8.97%; in assay [5] it was -4.18%.
